We go through 34 variants from the RNAGym collection of RNA variant scans (doi:10.1093/nar/gkz1192).

Read counts are not given, so values of variants with three or more changes are uncertain.

First the molecules themselves.
B1: CPEB3 Ribozyme (parent)
chain: UAACAGGGGGCCACAGCAGAAGCGUUCACGUCGCAGCCCCUGUCAGAUUCUGGUGAAUCUGCGAAUUCUGCUGUAUAUCUC

In the data set the parent is B1. In words: self-cleavage, relative activity (ratio to wild type); higher = more cleavage; in vitro, sequencing. Put shortly: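 CPEB3 self-cleaving ribozyme mutant libraries were made by rounds of error-prone PCR, barcoded, and transcribed in vitro with T7 RNA polymerase for 5 hours at 37°C. Cleavage occurred during transcription and a 15 min DNase I step before EDTA stop. RNAs were reverse transcribed with template switching and Illumina-sequenced, with DNA sequencing mapping barcodes to variants. Relative activity is the variant's cleaved/total read fraction divided by wild type's (minimum 5 reads), averaged across three batches.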
With UAACAGUGGGCCACAGCAGGAGCGUUCACGUCGCAGCCCCUGCCAGAUUCUCGUGAAUCUGCGAAUUCUGCUGUAUACCUC [G7U A20G U43C G52C U78C], the self-cleavage came out at 0.17.
Turning to UAACAGCGGGCCACAGCAGAAGCGCUCACGUCGCAGCCCCUGUCAGAUCCUGGUGAAUCUGCGAAUUCUGCUGUAUAUCUC [G7C U25C U49C], the self-cleavage came out at 0.33.
The same measure for UAACAGCGGGCCACAGCAGAAUCGUUCACGUCGCAGCCCCUGUCAGGUUCUGGUGAAUCUGCGAAUUCUGCUGUAUAUCUC [G7C G22U A47G]: 0.2; for UAACAGUGGGCCACAGAAGAAGCGAUCUCGUCGCAGCCCCUGUCAGAUUCUGGUGAAUCUGCGAUUUCUGCUGUAUAUUUC [G7U C17A U25A A28U A65U C79U]: 0.03; for UAACAGUGGGCCACAGCAGAAGCGUUCACGUCGCAGCCCCUGUCGGAUUCUGGUGAAUCUGCGUAUCCCGCUGUAUAUCUC [G7U A45G A64U U67C U69C]: 0.37.
With UAACAGUGGGCCACAGCAGAAGCGUUCACGCCGCAGCCCCUGUCAGAUUCUGGUGAAUCUGCGAAUUCUGCUGGAUACCUC [G7U U31C U74G U78C], the self-cleavage stood at 0.21.
The same measure for UAACAGUGGGCCACAGCAGAAGAGUUCACGUCGCUGCCCCUGUCAGAUUCUGGUGAAUCUGCGAAUUCUGCUGUAUAUCCC [G7U C23A A35U U80C]: 0.05; for UAACAGUGGGCCACAGCAGAAGCGUUCACGUCGCUGCCCCUGUCAGAUUCUGGUGAAUCUGCGAAUCCUGCUGUAUAUCUC [G7U A35U U67C]: 0.35; for UAACAGUGGGCCACAGCUGAAGCGUUCACGUCGCAGCCCCUGACAGAUUCUGGUGAAUCUGCGAAUUCAGCUGUAUAUCUC [G7U A18U U43A U69A]: 0.38.
The same measure for UAACAGUGGGCCAAAGCAGAAGCGUUCACGUCGCUGCCCCUGUCAGAUUCUGGUGAAUCUGCGGAUUCUGCUGUAUAUCUC [G7U C14A A35U A64G]: 0.15; for UAACAGCGGGCCACACCAGAAGCGUUCACGUCGCAGCCCCUGUCAGAUUCUGGUGAGUCUACGAAUUCUGCUGUACAUCUC [G7C G16C A57G G61A U76C]: 0.1; for UAACAGUGGGCCACAGCAGAGGCGUUCACGUCGCAGCCCCUGUCAGAUUCUGGUUAAUCUGCGAAUCCUGCCGUAUAUCAC [G7U A21G G55U U67C U72C U80A]: 0.04.
The same measure for UAACAGUGGGCCACAGCAGAAGCGUUCACGACGCAGCCCCUGUCAGUUUCUGGUGAAUCUGCGAAUUCUGCUGUAUAUCUC [G7U U31A A47U]: 0.06; for UAACAGUGGGCCACAGCAGUAGCGUUCACGCCGCAGCCCCUGUCAGAUUCUGGUGAAUCUGCGAAUUCUGCUGUAUAUCUC [G7U A20U U31C]: 0.18; for UAACAGUAGGCCACAGCAGAAGCGAUCACGUCGCAGCCCCUGUCAGAUUCUGGUGUAUCUGCGAAUUCUGCUGUAUAUCUC [G7U G8A U25A A56U]: 0.07.
Consider UAACAGUGGGCCACAGCAGAAGCGUUCACGUCGCAGCCACUGUCAGAUUCUGGUGAAUCUGAGAAUUCUGCUGUAUAUCAC [G7U C39A C62A U80A], for which the self-cleavage was determined as 0.04.
Regarding UAACAGCGGGCCACAGCAGAAGCGUUCACGUCGCAGCCCCAGUCAGAUUCUGGUGAAUCUGCGAAUUCUGGUGUAUAUCUC [G7C U41A C71G], the self-cleavage turned out to be 0.05.
The same measure for UAACAGCGGGCCACAGCAGAAGCGUCCACGUCGCAGCCCCCGUCAGAUUCUGGUGAAUCUCCGAAUUCAGCUGUAUAUCUC [G7C U26C U41C G61C U69A]: 0.41; for UAACAGUGGGCCACAGCAGAAGCGUUCACGCCGCAGCCCCUGGCAGAUUCUGGUGAAUCUGCAAAUCCUGCUGUAUAUCUC [G7U U31C U43G G63A U67C]: 0.04.
Next, UAACAGUGGGCCACGGCAGAAGCGUUCACGUCGCAGCCCCUGCCAGAUUCUGGUGAAUCUGCGAAUUCUGCUGUAUAUCUC [G7U A15G U43C]: 0.3.
UAACAGUGGGCCACAGCAGACGCGUUCACGUCGCAGCCCCUGUCAGAUUCUGGUGAAUCUGCGAAUUCUGCUGUAUACCUC [G7U A21C U78C]: the self-cleavage is 0.15.
Consider UAACAGUGGGCCACAGCAGAAGCGUUCACCUCGCAGCCCCUGUCAGGUUAUGGUGAAUCUGCGAAUUCUGCUGUAUAUCUC [G7U G30C A47G C50A], for which the self-cleavage came out at 0.07.
The same measure for UAACAGUGGGCCACAGCAGAAGCGUUCACGCCGCAGCCCCUGUCAGGCUCUGGUGAAUCUGCGAAUUCUGCUGCAUAUCUC [G7U U31C A47G U48C U74C]: 0.18.
Turning to UAACAGCGGGCCACAGCAGAAGCGUUCACGUCGCAGCCCCUGUCAGAUUCUGGUGAAUCUGCGAAUUCCGCUGUACAUCUC [G7C U69C U76C], the self-cleavage is 0.08.
The same measure for UAACAGUGGGCCACAGCAGAAGCGUUCACGUCGCUGCCCCUGUCAGAUUCUGGUGAACCUGCGAAUUCUGCUGUAUAUCUC [G7U A35U U58C]: 0.12.
Next, UAACAGUGGGCCACAGCAGAAGCGUUCACGUCGCAGCCCCUGUUAGAUUCUGGUGAAACUGCGAAUUCUGCUGUAUAUCUC [G7U C44U U58A]: 0.08.
The same measure for UAACAGUGGGCCACAGCAGAAGCGUUCACGUCGCAGCCCCUGUUAGAUUCCGGUGAAUCUGCGAAUUCUGCUGUAUAUCUC [G7U C44U U51C]: 0.16; for UAACAGUGGGCCACAGCACAAGCGUUCACGUCGCAGCCCCUGUCAGAUCCUGGUGAAUCUGCGAGUUCUGCCGUAUAUCUC [G7U G19C U49C A65G U72C]: 0.2; for UAACAGUGGGCCACAGCAGAAGCGCUCACGUCGCAGCCCCUGACAGAUUCAGGUGAAUCUGCGAAUUCUGCUGUAUAUCUC [G7U U25C U43A U51A]: 0.11.
Take UAACAGCGGGCCACAGCAGAAGCGUUCACGUCGCAGCCCCUGUCAGAUUCUGGUGAAUCUGCGAAUUCCGCUGUAUAUCAC [G7C U69C U80A]: the self-cleavage was determined as 0.1.
Consider UAACAGCGGGCCACAGCAGAAGCGUCCACGUCCCAGCCCCUGUCAGAUUCUGGUGAAUCUGCGAAUUCUGCUGUAUAUCUC [G7C U26C G33C], for which the self-cleavage came to 0.2.
Take UAACAGCGGGCCACAGCAGAAGCGUUCACGUCGCAGCCCUUGUCAGAUUCUGGUGAGUCUGCGAAUUCUGCAGUAUAUCUC [G7C C40U A57G U72A]: the self-cleavage worked out at 0.16.
Next, UAACAGUGGGCCACAGCAGAAGCGUUCUCGCCGCAGCCCCUGUCAGAUUCUGGUGAGUCUGCGAAUUCUGCUGUAUAUCGC [G7U A28U U31C A57G U80G]: 0.09.
Consider UAACAGUGGGCCACAGCAGAGGCGUUCACGUCGCAGCCCCCGUCAGAUUCUGGCGGAUCUGCGAAUUCUGCUGUAUAUCCC [G7U A21G U41C U54C A56G U80C], for which the self-cleavage worked out at 0.12.
